Reference: the BET-seq Pho4 binding data (Le et al. 2018)
Some of the results follow. These are noisy estimates, calculated here from bound and input reads.

The sequences below were run against T1, Pho4 (S. cerevisiae) (UniProt P07270) (assay: relative binding free energy (BET-seq); higher = weaker binding). Conditions: reference: library average.
T1 sequence: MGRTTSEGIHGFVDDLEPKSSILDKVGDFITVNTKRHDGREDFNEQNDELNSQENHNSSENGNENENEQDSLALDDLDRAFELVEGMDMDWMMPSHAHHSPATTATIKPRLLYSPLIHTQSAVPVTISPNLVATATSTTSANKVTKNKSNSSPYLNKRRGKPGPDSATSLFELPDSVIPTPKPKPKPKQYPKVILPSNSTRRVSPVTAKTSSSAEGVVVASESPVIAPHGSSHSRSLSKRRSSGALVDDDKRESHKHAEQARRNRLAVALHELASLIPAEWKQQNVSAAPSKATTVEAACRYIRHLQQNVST

Sequence | relative binding free energy
TGGTGCACGTGGCTCA | -0.02 kcal/mol
TCAGTCACGTGTTTAT | 0.06 kcal/mol
GCTGTCACGTGTTCTT | 0.24 kcal/mol
GTGGGCACGTGGTGCA | -0.15 kcal/mol
TGCATCACGTGGGATT | -0.05 kcal/mol
GGGATCACGTGGACGG | 0.17 kcal/mol
TTGATCACGTGTGGGC | 0.2 kcal/mol
TCCGGCACGTGGAGGG | -0.07 kcal/mol
GGAGACACGTGGTTTG | 0.02 kcal/mol
TTGACCACGTGATTGT | 0.19 kcal/mol
ACTTGCACGTGTGGGT | -0.02 kcal/mol
CTGTACACGTGGAGGT | 0 kcal/mol
ATGTTCACGTGGGGCC | 0.18 kcal/mol
AGCGGCACGTGAGTGA | 0.2 kcal/mol
GTGGTCACGTGGCGTT | 0.03 kcal/mol
TTTGTCACGTGCCGTG | -0.05 kcal/mol
TGGTACACGTGTTTTA | 0.11 kcal/mol
TTGGACACGTGCTGTA | -0.04 kcal/mol
GAAGTCACGTGAAGTG | 0.32 kcal/mol
TATAGCACGTGGGCAT | -0.17 kcal/mol
GTAAACACGTGGATGT | -0.02 kcal/mol
GTACTCACGTGAATGT | 0.31 kcal/mol
ACGTACACGTGGTTTT | 0.08 kcal/mol

Sequence | relative binding free energy
ATGTTCACGTGTCGTA | 0.22 kcal/mol
ATGGGCACGTGAGGGT | 0.19 kcal/mol
GACGTCACGTGTATGG | 0.29 kcal/mol
CACGTCACGTGAGGGT | 0.12 kcal/mol
GATGGCACGTGTTATG | 0.09 kcal/mol
GTTGGCACGTGTCATT | 0.06 kcal/mol
TAGTGCACGTGCCTGG | -0.19 kcal/mol
ATTTTCACGTGTGTGT | 0.23 kcal/mol
TCTGGCACGTGCATGG | -0.19 kcal/mol
GGGATCACGTGTTTTT | 0.34 kcal/mol
TTGCTCACGTGCGGGG | 0.1 kcal/mol
TCGGGCACGTGGATGA | -0.12 kcal/mol
CTGGTCACGTGGTGGT | 0.01 kcal/mol
CTGGGCACGTGGGGGG | -0.23 kcal/mol
TATTACACGTGTTGTT | 0.17 kcal/mol
GTATGCACGTGTCGTA | 0 kcal/mol
GGGGACACGTGGATAA | 0.13 kcal/mol
TGTGTCACGTGTGTAG | 0.22 kcal/mol
AAATACACGTGTTAGT | -0.02 kcal/mol
ATTTGCACGTGCGGTA | -0.03 kcal/mol
AGCGGCACGTGTCGTT | 0.1 kcal/mol
GTTGTCACGTGGGGGA | 0.1 kcal/mol
GATTGCACGTGGGGTG | -0.17 kcal/mol

Sequence | relative binding free energy
GTGTTCACGTGTTCTA | 0.18 kcal/mol
CTGGGCACGTGTGGTG | -0.12 kcal/mol
AGGAGCACGTGGGCTA | -0.33 kcal/mol
TTGGTCACGTGGATCA | 0.32 kcal/mol
GGTACCACGTGTTGGA | -0.03 kcal/mol
GGTCTCACGTGCAGTT | 0.27 kcal/mol
ACTGTCACGTGTTTAG | 0.14 kcal/mol
GATGACACGTGTGGCT | 0.16 kcal/mol
TCTGGCACGTGGGACA | -0.07 kcal/mol
GCTTGCACGTGGGCGG | -0.15 kcal/mol
GATTACACGTGGATAG | 0.21 kcal/mol
GTAATCACGTGCGTTT | 0.16 kcal/mol
TTCGGCACGTGATATA | 0.02 kcal/mol
GATGTCACGTGTGTGC | 0.27 kcal/mol
GGGGTCACGTGAGCAT | 0.25 kcal/mol
TGGTGCACGTGATGAC | 0.12 kcal/mol
ATCAGCACGTGGGCGG | -0.27 kcal/mol
GGATTCACGTGTATTT | 0.29 kcal/mol
AGTCGCACGTGGGGTG | -0.25 kcal/mol
AGGGTCACGTGAGCGG | 0.14 kcal/mol
TGTTACACGTGTTACT | 0.03 kcal/mol
AGTGTCACGTGGTTCG | 0.05 kcal/mol
TCTTGCACGTGTTGAG | 0.01 kcal/mol

Sequence | relative binding free energy
TGGGTCACGTGTGACA | 0.09 kcal/mol
AGACTCACGTGTGGTA | 0.35 kcal/mol
TAAGGCACGTGTTTCT | -0.07 kcal/mol
GTCTTCACGTGGGGGC | 0.17 kcal/mol
GTAGTCACGTGTCGGA | 0.13 kcal/mol
AAGGACACGTGTGGTT | -0.02 kcal/mol
GTGCTCACGTGTATTT | 0.26 kcal/mol
TTATTCACGTGCGTAT | 0.18 kcal/mol
TTATACACGTGGAGTA | 0 kcal/mol
TGGCCCACGTGGTTGG | -0.3 kcal/mol
ATCTTCACGTGGGGTA | 0.12 kcal/mol
TCGTGCACGTGGCGTT | -0.18 kcal/mol
CTACGCACGTGGGGGT | -0.35 kcal/mol
GTGTGCACGTGTGGGC | 0.11 kcal/mol
CCTGGCACGTGGGAAG | -0.08 kcal/mol
GGGTTCACGTGGCGAT | 0.24 kcal/mol
GGCTGCACGTGCGGGG | -0.1 kcal/mol
CTGTACACGTGTCTGG | 0.12 kcal/mol
TAGAGCACGTGGGTAT | -0.14 kcal/mol
TGGAACACGTGGTGCG | 0 kcal/mol
GTGGTCACGTGTCTAG | 0.1 kcal/mol
GCTGGCACGTGGGGGT | -0.22 kcal/mol
TTAACCACGTGTGGTG | -0.03 kcal/mol

Sequence | relative binding free energy
TTGATCACGTGGCGAT | -0.01 kcal/mol
TGGCGCACGTGAAGGG | 0.18 kcal/mol
GTGGTCACGTGTGAAA | 0.25 kcal/mol
TTGGGCACGTGCGGAC | -0.17 kcal/mol
CGTGGCACGTGGCGGC | -0.14 kcal/mol
GAGATCACGTGGTTCT | 0.23 kcal/mol
TATTTCACGTGTGAGT | 0.27 kcal/mol
AGTCTCACGTGATTAG | 0.29 kcal/mol
GTAGCCACGTGGGATG | 0.03 kcal/mol
AGGCTCACGTGGGAAA | 0.27 kcal/mol
TATGTCACGTGGTTAG | -0.03 kcal/mol
ATCTTCACGTGTTGTA | 0.15 kcal/mol
TACTTCACGTGGTCGG | 0.14 kcal/mol
AAAGACACGTGAGGGT | 0.27 kcal/mol
TTGTTCACGTGTTTTG | 0.27 kcal/mol
GGTAGCACGTGGACGG | 0.03 kcal/mol
TGGGACACGTGTAAGT | 0.12 kcal/mol
CGGGCCACGTGACGGT | 0.04 kcal/mol
GTCATCACGTGGCGTG | 0.16 kcal/mol
AGTTCCACGTGTGTGA | 0.07 kcal/mol
AGTTGCACGTGGAAAA | 0.18 kcal/mol
AAAGACACGTGGGGAG | -0.1 kcal/mol
TTGGACACGTGTGTTA | 0.04 kcal/mol
